Data reported in the supplement of paper PMC8728848.
This is one part of the list.

Tests used:
Assay in all cases: glycan array binding signal (z-score within array); higher = stronger binding
Conditions in all cases: glycan notation: IUPAC condensed, linker removed
[1] = target: Neu5Ac(a2-3)Gal(b1-4)GlcNAc(b1-2)[Neu5Ac(a2-3)Gal(b1-4)GlcNAc(b1-4)]Man(a1-3)[GlcNAc(b1-4)][Neu5Ac(a2-3)Gal(b1-4)GlcNAc(b1-2)[Neu5Ac(a2-3)Gal(b1-4)GlcNAc(b1-6)]Man(a1-6)]Man(b1-4)GlcNAc(b1-4)GlcNAc
Method in brief: (§1)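 Glycan array data were curated from 3228 arrays in the Consortium for Functional Glycomics database and kept only where the protein sequence was available. Glycan names were converted to IUPAC-condensed notation, and columns mapping to the same glycan were averaged. The binding signal is a within-array Z-score, averaged across arrays of the same protein sequence at different concentrations or buffers and across linkers. Negative Z-scores can be read as non-binding.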

[2] = target: Neu5Ac(a2-3)Gal(b1-4)GlcNAc(b1-2)[Neu5Ac(a2-3)Gal(b1-4)GlcNAc(b1-4)]Man(a1-3)[GlcNAc(b1-4)][Neu5Ac(a2-3)Gal(b1-4)GlcNAc(b1-4)Man(a1-6)]Man(b1-4)GlcNAc(b1-4)GlcNAc
Method in brief: as §1

[3] = target: Neu5Ac(a2-3)Gal(b1-4)GlcNAc(b1-2)[Neu5Ac(a2-3)Gal(b1-4)GlcNAc(b1-6)]Man(a1-6)[Neu5Ac(a2-3)Gal(b1-4)GlcNAc(b1-2)Man(a1-3)][GlcNAc(b1-4)]Man(b1-4)GlcNAc(b1-4)GlcNAc
Method in brief: as §1

[4] = target: Neu5Ac(a2-3)Gal(b1-4)GlcNAc(b1-3)Gal
Method in brief: as §1

[5] = target: Neu5Ac(a2-3)Gal(b1-4)GlcNAc(b1-3)Gal(b1-3)GlcNAc
Method in brief: as §1

[6] = target: Neu5Ac(a2-3)Gal(b1-4)GlcNAc(b1-3)Gal(b1-4)GlcNAc
Method in brief: as §1

[7] = target: Neu5Ac(a2-3)Gal(b1-4)GlcNAc(b1-3)Gal(b1-4)GlcNAc(b1-2)Man(a1-3)[Neu5Ac(a2-3)Gal(b1-4)GlcNAc(b1-3)Gal(b1-4)GlcNAc(b1-2)Man(a1-6)]Man(b1-4)GlcNAc(b1-4)GlcNAc
Method in brief: as §1

[8] = target: Neu5Ac(a2-3)Gal(b1-4)GlcNAc(b1-3)Gal(b1-4)GlcNAc(b1-3)Gal(b1-4)GlcNAc
Method in brief: as §1

[9] = target: Neu5Ac(a2-3)Gal(b1-4)GlcNAc(b1-3)Gal(b1-4)GlcNAc(b1-3)Gal(b1-4)GlcNAc(b1-2)Man(a1-3)[Neu5Ac(a2-3)Gal(b1-4)GlcNAc(b1-3)Gal(b1-4)GlcNAc(b1-3)Gal(b1-4)GlcNAc(b1-2)Man(a1-6)]GalNAc
Method in brief: as §1

[10] = target: Neu5Ac(a2-3)Gal(b1-4)GlcNAc(b1-3)Gal(b1-4)GlcNAc(b1-3)GalNAc
Method in brief: as §1

[11] = target: Neu5Ac(a2-3)Gal(b1-4)GlcNAc(b1-3)Gal(b1-4)GlcNAc(b1-3)[Neu5Ac(a2-3)Gal(b1-4)GlcNAc(b1-3)Gal(b1-4)GlcNAc(b1-6)]GalNAc
Method in brief: as §1

[12] = target: Neu5Ac(a2-3)Gal(b1-4)GlcNAc(b1-3)Gal(b1-4)GlcNAc(b1-6)[Gal(b1-3)]GalNAc
Method in brief: as §1

[13] = target: Neu5Ac(a2-3)Gal(b1-4)GlcNAc(b1-3)Gal(b1-4)[Fuc(a1-3)]GlcNAc
Method in brief: as §1

[14] = target: Neu5Ac(a2-3)Gal(b1-4)GlcNAc(b1-3)GalNAc
Method in brief: as §1

[15] = target: Neu5Ac(a2-3)Gal(b1-4)GlcNAc(b1-3)[Neu5Ac(a2-3)Gal(b1-4)GlcNAc(b1-6)]GalNAc
Method in brief: as §1

[16] = target: Neu5Ac(a2-3)Gal(b1-4)GlcNAc(b1-6)GalNAc
Method in brief: as §1

[17] = target: Neu5Ac(a2-3)Gal(b1-4)GlcNAc(b1-6)[Gal(b1-3)]GalNAc
Method in brief: as §1

[18] = target: Neu5Ac(a2-3)Gal(b1-4)GlcNAc(b1-6)[Neu5Ac(a2-3)Gal(b1-3)]GalNAc
Method in brief: as §1

[19] = target: Neu5Ac(a2-3)Gal(b1-4)GlcNAc6S
Method in brief: as §1

[20] = target: Neu5Ac(a2-3)Gal(b1-4)[Fuc(a1-3)]GlcNAc
Method in brief: as §1

[21] = target: Neu5Ac(a2-3)Gal(b1-4)[Fuc(a1-3)]GlcNAc(b1-2)Man
Method in brief: as §1

[22] = target: Neu5Ac(a2-3)Gal(b1-4)[Fuc(a1-3)]GlcNAc(b1-3)Gal
Method in brief: as §1

[23] = target: Neu5Ac(a2-3)Gal(b1-4)[Fuc(a1-3)]GlcNAc(b1-3)Gal(b1-4)GlcNAc
Method in brief: as §1

[24] = target: Neu5Ac(a2-3)Gal(b1-4)[Fuc(a1-3)]GlcNAc(b1-3)Gal(b1-4)[Fuc(a1-3)]GlcNAc(b1-3)Gal(b1-4)[Fuc(a1-3)]GlcNAc
Method in brief: as §1

[25] = target: Neu5Ac(a2-3)Gal(b1-4)[Fuc(a1-3)]GlcNAc(b1-3)GalNAc
Method in brief: as §1

[26] = target: Neu5Ac(a2-3)Gal(b1-4)[Fuc(a1-3)]GlcNAc(b1-6)[Gal(b1-3)]GalNAc
Method in brief: as §1

[27] = target: Neu5Ac(a2-3)Gal(b1-4)[Fuc(a1-3)]GlcNAc(b1-6)[Neu5Ac(a2-3)Gal(b1-3)]GalNAc
Method in brief: as §1

[28] = target: Neu5Ac(a2-3)Gal(b1-4)[Fuc(a1-3)]GlcNAc6S
Method in brief: as §1

[29] = target: Neu5Ac(a2-3)Gal6S(b1-4)GlcNAc
Method in brief: as §1

[30] = target: Neu5Ac(a2-3)Gal6S(b1-4)[Fuc(a1-3)]GlcNAc
Method in brief: as §1

[31] = target: Neu5Ac(a2-3)GalNAc
Method in brief: as §1

[32] = target: Neu5Ac(a2-3)GalNAc(b1-4)GlcNAc
Method in brief: as §1

[33] = target: Neu5Ac(a2-3)[GalNAc(b1-4)]Gal(b1-4)Glc
Method in brief: as §1

[34] = target: Neu5Ac(a2-3)[GalNAc(b1-4)]Gal(b1-4)GlcNAc
Method in brief: as §1

[35] = target: Neu5Ac(a2-3)[GalNAc(b1-4)]Gal(b1-4)GlcNAc(b1-3)GalNAc
Method in brief: as §1

[36] = target: Neu5Ac(a2-3)[Neu5Ac(a2-6)]GalNAc
Method in brief: as §1

[37] = target: Neu5Ac(a2-6)Gal
Method in brief: as §1

[38] = target: Neu5Ac(a2-6)Gal(b1-3)GlcNAc(b1-3)[Gal(b1-4)GlcNAc(b1-6)]Gal(b1-4)Glc
Method in brief: as §1

[39] = target: Neu5Ac(a2-6)Gal(b1-4)Glc
Method in brief: as §1

[40] = target: Neu5Ac(a2-6)Gal(b1-4)GlcNAc
Method in brief: as §1

[41] = target: Neu5Ac(a2-6)Gal(b1-4)GlcNAc(b1-2)Man
Method in brief: as §1

[42] = target: Neu5Ac(a2-6)Gal(b1-4)GlcNAc(b1-2)Man(a1-3)Man(b1-4)GlcNAc(b1-4)GlcNAc
Method in brief: as §1

[43] = target: Neu5Ac(a2-6)Gal(b1-4)GlcNAc(b1-2)Man(a1-3)[Gal(b1-4)GlcNAc(b1-2)Man(a1-6)]Man(b1-4)GlcNAc(b1-4)GlcNAc
Method in brief: as §1

[44] = target: Neu5Ac(a2-6)Gal(b1-4)GlcNAc(b1-2)Man(a1-3)[GlcNAc(b1-2)Man(a1-6)]Man(b1-4)GlcNAc(b1-4)GlcNAc
Method in brief: as §1

[45] = target: Neu5Ac(a2-6)Gal(b1-4)GlcNAc(b1-2)Man(a1-3)[GlcNAc(b1-4)][Neu5Ac(a2-6)Gal(b1-4)GlcNAc(b1-2)Man(a1-6)]Man(b1-4)GlcNAc(b1-4)GlcNAc
Method in brief: as §1

B1: LecRKVI.2 (protein)
chain: RTTTNFAFRGFNGNQSKIRIEGAAMIKPDGLLRLTDRKSNVTGTAFYHKPVRLLNRNSTNVTIRSFSTSFVFVIIPSSSSNKGFGFTFTLSPTPYRLNAGSAQYLGVFNKENNGDPRNHVFAVEFDTVQGSRDDNTDRIGNDIGLNYNSRTSDLQEPVVYYNNDDHNKKEDFQLESGNPIQALLEYDGATQMLNVTVYPARLGFKPTKPLISQHVPKLLEIVQEEMYVGFTASTGKGQSSAHYVMGWSFSSGGERPIADVLILSELPPPPPNKAKKEGLNS
- glycan array binding signal (z-score) [1]: -0.364
- glycan array binding signal (z-score) [2]: -0.333
- glycan array binding signal (z-score) [3]: -0.352
- glycan array binding signal (z-score) [4]: -0.323
- glycan array binding signal (z-score) [5]: -0.465
- glycan array binding signal (z-score) [6]: -0.162
- glycan array binding signal (z-score) [7]: -0.177
- glycan array binding signal (z-score) [8]: -0.204
- glycan array binding signal (z-score) [9]: 0.958
- glycan array binding signal (z-score) [10]: -0.271
- glycan array binding signal (z-score) [11]: -0.261
- glycan array binding signal (z-score) [12]: -0.37
- glycan array binding signal (z-score) [13]: -0.362
- glycan array binding signal (z-score) [14]: -0.282
- glycan array binding signal (z-score) [15]: -0.323
- glycan array binding signal (z-score) [16]: -0.273
- glycan array binding signal (z-score) [17]: -0.215
- glycan array binding signal (z-score) [18]: -0.41
- glycan array binding signal (z-score) [19]: -0.385
- glycan array binding signal (z-score) [20]: -0.408
- glycan array binding signal (z-score) [21]: -0.35
- glycan array binding signal (z-score) [22]: -0.392
- glycan array binding signal (z-score) [23]: -0.238
- glycan array binding signal (z-score) [24]: -0.44
- glycan array binding signal (z-score) [25]: -0.276
- glycan array binding signal (z-score) [26]: 3.09
- glycan array binding signal (z-score) [27]: 0.077
- glycan array binding signal (z-score) [28]: -0.283
- glycan array binding signal (z-score) [29]: -0.401
- glycan array binding signal (z-score) [30]: -0.46
- glycan array binding signal (z-score) [31]: -0.25
- glycan array binding signal (z-score) [32]: -0.33
- glycan array binding signal (z-score) [33]: 0.016
- glycan array binding signal (z-score) [34]: -0.286
- glycan array binding signal (z-score) [35]: -0.005
- glycan array binding signal (z-score) [36]: -0.351
- glycan array binding signal (z-score) [37]: -0.33
- glycan array binding signal (z-score) [38]: -0.364
- glycan array binding signal (z-score) [39]: -0.337
- glycan array binding signal (z-score) [40]: -0.368
- glycan array binding signal (z-score) [41]: -0.467
- glycan array binding signal (z-score) [42]: -0.221
- glycan array binding signal (z-score) [43]: 0.37
- glycan array binding signal (z-score) [44]: -0.274
- glycan array binding signal (z-score) [45]: -0.376
